Experimental data published in patent US20160074291A1, “ANTI-AGING SKIN CARE COMPOSITIONS AND REGIMENS” (The Procter & Gamble Company, priority 2014, published 2016).

Legend:
[1] = tested on: overall appearance associated genes; assay: Effect on overall appearance associated genes; settings: FIG. 5
[2] = tested on: eigengene for the "Cell Adhesion and Junction" theme; settings: cultured human keratinocytes; for effect on eigengene of "Cell Adhesion and Junction" theme: transcriptome profile, FIG. 4

Substance	anti-aging benefit on the overall appearance associated genes [1]	effect on eigengene of "Cell Adhesion and Junction" theme [2]	eigengene expression associated with cell junction assembly and cell adhesion processes [2]
palmitoyl-lysine-threonine [Pal-KT]	strong anti-aging benefit	significantly up-regulate	–
palmitoyl-lysine-threonine-threonine-lysine-serine [Pal-KTTKS]	–	significantly up-regulate	significantly increase
